Whole data set: some 33,000 sequences, median “E-score (-0.5 to 0.5)” near -0.041, cut for the highest 2% near 0.37. The list shows a part of the results.
The sequences below were run against T1, Ecm22 (UniProt Q05958) (assay: PBM E-score (8-mer binding enrichment) (E-score (-0.5 to 0.5)); higher = stronger / more preferred TF binding; most listed sequences are background and not binding sites). Settings: protein concentration: 200 nM; construct: GST-full length.
T1 sequence: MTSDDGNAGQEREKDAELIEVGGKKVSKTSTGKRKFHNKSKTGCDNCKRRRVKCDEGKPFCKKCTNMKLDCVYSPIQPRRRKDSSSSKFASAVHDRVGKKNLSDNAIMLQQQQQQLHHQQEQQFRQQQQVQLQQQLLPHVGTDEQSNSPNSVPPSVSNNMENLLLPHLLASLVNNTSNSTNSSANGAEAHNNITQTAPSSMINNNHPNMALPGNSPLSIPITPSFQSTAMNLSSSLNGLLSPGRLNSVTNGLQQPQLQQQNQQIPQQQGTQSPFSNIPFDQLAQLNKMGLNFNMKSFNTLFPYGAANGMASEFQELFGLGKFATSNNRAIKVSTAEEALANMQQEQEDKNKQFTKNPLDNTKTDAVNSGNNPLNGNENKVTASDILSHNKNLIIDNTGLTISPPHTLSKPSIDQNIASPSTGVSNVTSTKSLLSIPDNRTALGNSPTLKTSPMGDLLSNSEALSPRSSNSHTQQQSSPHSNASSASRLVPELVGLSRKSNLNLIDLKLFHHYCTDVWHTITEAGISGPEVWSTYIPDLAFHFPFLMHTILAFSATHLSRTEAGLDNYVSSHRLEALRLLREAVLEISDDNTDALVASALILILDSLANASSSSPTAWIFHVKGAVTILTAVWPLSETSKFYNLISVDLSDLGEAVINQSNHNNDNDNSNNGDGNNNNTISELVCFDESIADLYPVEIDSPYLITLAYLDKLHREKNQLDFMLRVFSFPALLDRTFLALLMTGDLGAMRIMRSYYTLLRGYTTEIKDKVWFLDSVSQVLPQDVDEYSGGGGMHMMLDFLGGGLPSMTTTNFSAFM
How it was run: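 PURExpress in vitro transcription/translation supplied GST-tagged yeast transcription factors, either full-length or DNA-binding domain. Applied at about 100-200 nM to universal all-10-mer Agilent arrays double-stranded by primer extension, the bound protein was detected with fluorescent anti-GST. E-scores, modified Wilcoxon-Mann-Whitney statistics, were given by the Universal PBM Analysis Suite to ungapped eight-base words pooled with their reverse complements after masliner normalisation.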

Sequence | PBM E-score
AGGACCAG | -0.228
CAGCCTAG | -0.247
AGCGTAAG | 0.0602
ATTGAACG | 0.32
ATCGTTGC | 0.347
CTGGTAAA | -0.0731
ACTGGCGC | -0.0524
CCCTTCTA | -0.258
AGCCGCCT | -0.125
GGCACAGA | -0.0886
CGCGGACG | 0.0162
ACTCTGAT | -0.153
AGCCCCCG | -0.137
CGCCAACG | 0.0795
ACAAGATA | -0.0925
GGACGGAA | -0.0866
GCAGCGAC | 0.0343
GGTTGCCA | -0.171
CTAAGCGA | 0.385
ATGACTAC | -0.0246
GCTCCTAC | -0.0343
GCGCAGCA | -0.306
CCAGTAAG | 0.0694
CATGTCGC | 0.115
ACGTCCCA | -0.215

Sequence | PBM E-score
AGCTAGGC | -0.233
AGGGTAGA | -0.115
ACTGCGAA | -0.134
GGTACGGA | 0.413
GAGGGGCA | -0.089
GGAAGGTA | -0.0111
GAGTAACC | 0.1
CAATGAGG | -0.0148
AGTGCTAT | -0.0327
CAATAGGC | -0.117
CTGTATGC | -0.121
GAAAGATC | 0.0489
GGGGGGAA | -0.223
AGAGAAAC | 0.00099
CCAATGCA | -0.202
GCGAGAAA | 0.133
AACCGGCC | -0.0418
GTGACTGA | -0.142
GTAAACGA | 0.485
AGAACCCC | -0.179
CTGGGGCA | -0.266
TAACGTCA | 0.0349
AAGGCGCA | -0.0313
AAAAGTAA | -0.108
ACTGCCTA | -0.112

Sequence | PBM E-score
CCACCTCG | 0.137
CGATAGCC | -0.0236
CCGAAAGG | -0.0107
CACGACGG | 0.167
ACATCCAG | -0.0439
AGGTGAAT | -0.126
AACTTCAT | -0.13
GGGATTCA | -0.0716
TGTATGAA | 0.0335
CCTGTTCG | 0.159
AGTGTCAA | -0.131
ACTAGACT | 0.0101
ACGGTGCC | 0.16
ACAAAGTC | -0.0855
CAGATATC | -0.0887
AGTGAAAA | -0.112
CCGCTGAC | -0.153
CCCGCACG | -0.12
ACCTAGGT | 0.0335
GTATCGCA | 0.16
GAATCACC | 0.109
CGGGACCG | 0.187
AATAAGCC | -0.285
CGCAGTTA | -0.0607
ACTGGTCT | -0.123

Sequence | PBM E-score
ATGAGCAT | -0.104
CCGCCTGA | -0.0662
CAGGTTTA | 0.00102
TAAGACGA | 0.0531
ATGAGAAA | -0.132
AGCGATGA | 0.124
GCGCACCC | 0.0829
GCCTGAAA | -0.139
ACACACGG | -0.135
AACCGACC | 0.294
CAACGCAG | -0.063
ATGCTGAG | -0.31
GAATAACC | -0.0393
GAACGTGA | 0.00882
GCCTCGTA | 0.481
ACAGACGC | -0.0563
ACCCTTTC | -0.163
GTAGCCGA | 0.0917
CACCTGCA | -0.141
GACGCTCC | 0.0538
CATGCTAA | -0.216
CGTCGGAG | -0.0534
GGGCGCCC | 0.0232
ATAAACCG | 0.157
CACGTCTC | -0.0104

Sequence | PBM E-score
CTAATGCA | -0.105
AAGACGCC | -0.064
CTAATATA | 0.132
AGGCCAGG | -0.117
ATCAAAAG | -0.0342
GGCCTACC | -0.163
GCCGTGCA | -0.305
TAACTGGA | -0.136
CCTCGTAC | 0.491
AACTTTTA | 0.163
CCTAGGTC | -0.179
ATGAGTAC | 0.124
CCTCAAAA | -0.178
GCTTTACC | 0.122
CTGTCAAG | 0.00056
GGAACCCC | -0.0773
CTGACAAG | -0.112
ACATCACA | -0.127
GCCGATTA | 0.025
GCGTCAGA | -0.183
AACTACTA | 0.0421
ATTGCCCC | -0.19
CCAGGCCC | -0.0635
CCTACTAC | -0.14
TCAATCGA | 0.0501

Sequence | PBM E-score
ATCCCAAA | -0.138
CAGAGTGG | -0.048
AGAAACAG | -0.163
ACGTAGTG | -0.206
GATTACCA | 0.0483
AAAGTAGT | -0.273
CATTAGGG | -0.168
AGACGCCT | -0.219
CATATATA | 0.126
GAGCTACA | -0.304
AGGGACCC | -0.213
CGCCGTTC | 0.362
ACGATCGG | 0.274
CCTGAGAC | -0.163
TCCTTTCA | -0.0993
AGTAAAGC | -0.048
AACCGCCG | 0.112
AACAGGAC | -0.0972
AGACAATG | -0.0415
GTGCAATA | -0.0126
AAATGCGC | -0.0587
GATAATGA | 0.0909
GACCCATA | -0.0211
AACCGTTA | 0.0731
AAGAAAGT | 0.08

Sequence | PBM E-score
AGGTGTCC | 0.0273
ACTCACGC | 0.0894
GGTCATCA | -0.0312
ACTCTATA | 0.0543
CATCGTAA | 0.381
AGGGAGAA | -0.263
CAACCAAA | -0.00251
AACTCTAC | -0.0593
ACAAGTAG | -0.243
CATTGCTA | -0.0185
CCTCTTAA | 0.028
CCACTACA | -0.212
AGTAAGCC | -0.0779
CCAATTCG | 0.0321
AAGGTCTG | -0.177
ATTTCGCA | 0.243
CGTAAGTA | 0.26
AGATAAGC | 0.0456
CCCAAAGG | -0.182
CTCACATC | -0.0426
CTTATCGC | 0.0592
TGGCACCA | -0.213
